Measurements published in PubChem BioAssay AID588453 (National Center for Advancing Translational Sciences (NCATS), 2011).
Screen size: about 390,000 compounds; about 4,000 (1%) were called active. Inconclusive results, whose numbers are uncertain, are shown with a selection of clear calls. Calls come from the whole dose curve; as a rule, active = well fitted inhibition curve with a large enough effect; inconclusive = small, poorly fitted or top-dose-only effect; inactive = no such curve, though single readings can be large or run the other way. A potency beside an inconclusive call is a rough fit, not a confirmed value.

The compounds below were run against Thioredoxin reductase 1, cytoplasmic (Rattus norvegicus) (UniProt O89049) (assay: qHTS Assay for Inhibitors of Mammalian Selenoprotein Thioredoxin Reductase 1 (TrxR1): qHTS). Settings: recombinant rTrxR1, NADPH fluorescence consumption, selenite substrate; series mostly up to 114 µM.
Chain of UniProt O89049 (O89049 whole entry, looked up): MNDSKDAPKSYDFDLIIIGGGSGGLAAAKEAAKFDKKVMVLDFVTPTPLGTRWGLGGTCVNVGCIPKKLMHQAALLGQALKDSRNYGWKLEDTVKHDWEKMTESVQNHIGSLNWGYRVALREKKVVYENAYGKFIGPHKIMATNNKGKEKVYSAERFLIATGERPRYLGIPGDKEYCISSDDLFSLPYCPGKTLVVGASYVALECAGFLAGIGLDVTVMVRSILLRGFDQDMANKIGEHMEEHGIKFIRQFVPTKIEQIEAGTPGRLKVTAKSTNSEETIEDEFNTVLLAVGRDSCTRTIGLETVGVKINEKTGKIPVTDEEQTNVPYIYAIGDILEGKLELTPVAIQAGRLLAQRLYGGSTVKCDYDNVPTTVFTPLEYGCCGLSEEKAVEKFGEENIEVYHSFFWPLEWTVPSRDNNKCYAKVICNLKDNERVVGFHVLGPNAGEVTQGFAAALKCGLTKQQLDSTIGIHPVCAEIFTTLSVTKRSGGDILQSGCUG
In short: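 Rat TrxR1 (90 nM in the dispensed reagent) was pre-reduced with 400 uM NADPH for 5 min at room temperature, then incubated with compound for 15 min. After 400 uM selenite was added, NADPH fluorescence (Ex 340/Em 450 nm) was followed for 8 min.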
Note: nearly all actives have a fitted effect of over 65% in size.
Potency is the fitted concentration of half-maximal effect; tags give direction and shape of the fitted curve.

**Q.** Which Potency does the source give for `CN(CCCNC(=O)CCc1cn(C)c2ccccc12)C1CCCCC1` here?
**A.** inconclusive: 20 µM [inhibitor, partial curve, poor fit]

**Q.** With `CC(=O)Nc1ccc(NC(=O)CSc2nnc(N)n2-c2ccccc2)cc1` as the compound, how does the Potency read?
**A.** inconclusive: 89.1 µM [inhibitor, partial curve, poor fit]

**Q.** With `CC(=O)c1ccc(NC(=O)CSc2ccc3nnc(CCNS(=O)(=O)c4ccc(C)cc4)n3n2)cc1` as the compound, how does the Potency read?
**A.** inactive

**Q.** How did the Potency turn out when `Cc1ccc(CN(C(=O)COc2ccc([N+](=O)[O-])cc2)c2ccccn2)o1` was run?
**A.** inconclusive: 22.4 µM [inhibitor, partial curve, poor fit]

**Q.** For `COc1ccc(C(=O)n2nnc3ccccc32)cc1Br`, which Potency is on record?
**A.** active: 3.98 µM

**Q.** Which Potency does the source give for `CSc1nc(C)c(CCOC(=O)c2cccc(C)c2)c(=O)[nH]1` here?
**A.** inconclusive: 89.1 µM [inhibitor, single point]

**Q.** For `Cc1ccc(C(c2nnnn2CC2CCCO2)N2CCN(C(=O)c3ccco3)CC2)cc1` (stereo not drawn), which Potency is on record?
**A.** inconclusive: 25.1 µM [inhibitor, single point]

**Q.** `COc1cc(CNc2ccc(N3CCCC3)cc2)cc(Cl)c1OC` was tested. Which Potency did it give?
**A.** inconclusive: 12.6 µM [inhibitor, partial curve]

**Q.** Which Potency does the source give for `Oc1ccc(CNc2ccccc2)c2cccnc12` here?
**A.** inconclusive: 1.78 µM [inhibitor, full curve, poor fit]

**Q.** Which Potency does the source give for `COc1ccccc1/C=C/C=N/NC(=O)Cc1cccn1C` here?
**A.** inconclusive: 70.8 µM [inhibitor, partial curve]

**Q.** For `O=C(NCCc1ccccc1)c1cnc2sc(N3CCCCC3)nn2c1=O`, which Potency is on record?
**A.** inactive

**Q.** `N#C/C(=C\c1ccc(N2CCOCC2)o1)C(=O)NCCc1ccccc1` was tested. Which Potency did it give?
**A.** inconclusive: 31.6 µM [inhibitor, full curve]

**Q.** How did the Potency turn out when `C/C(Cn1nnc([N+](=O)[O-])n1)=N\NC(=O)c1ccc(Cl)c(Cl)c1` was run?
**A.** inconclusive: 44.7 µM [inhibitor, partial curve, poor fit]

**Q.** Which Potency does the source give for `COc1ccc(CCNS(=O)(=O)c2ccc(N3CCCCS3(=O)=O)cc2)cc1` here?
**A.** inactive

**Q.** With `CC(C)Oc1ccc(N2CC(C(=O)Nc3ccc(N4CCOCC4)cc3)CC2=O)cc1` (stereo not drawn) as the compound, how does the Potency read?
**A.** inconclusive: 3.98 µM [inhibitor, partial curve, poor fit]

**Q.** For `COc1ccc(C(=O)CN2CCN(c3ccc(F)cc3)CC2)cc1OC`, which Potency is on record?
**A.** active: 20 µM

**Q.** How did the Potency turn out when `CCOC(=O)C1=C(C)NC2=C(C(=O)CCC2)C1c1ccc(O)c(OCC)c1` (stereo not drawn) was run?
**A.** inconclusive: 70.8 µM [inhibitor, partial curve, poor fit]

**Q.** `COc1ccc(-c2cc(C)no2)cc1S(=O)(=O)N1CCN(C(=O)c2ccco2)CC1` was tested. Which Potency did it give?
**A.** inconclusive: 50.1 µM [inhibitor, partial curve]
